Reference: the supplement of paper PMC6206098
± gives the uncertainty stated by the source. Shown are siRNA guide strands that differ only in the seed, positions 2 to 7.

How the values were obtained:
3LL = assay: cell viability relative to siNT1 control; higher = less toxic; settings: concentration: 10 nM; 96 h; Mus musculus;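 further: Luminescence-based viability of cells reverse transfected in 384-well plates with lipid-complexed siRNAs built on a non-toxic 19mer backbone whose passenger strand carries 2′-O-methyl groups at positions 1 and 2, triplicates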
H460 = assay: cell viability relative to lipid-only control; HeyA8 human ovarian and H460 human lung cancer; M565 mouse liver and 3LL mouse lung cancer; siNT1 is a non-toxic control siRNA; higher = less toxic; settings: concentration: 10 nM; 96 h; Homo sapiens
HeyA8 = assay: as above; settings: concentration: 10 nM; 96 h; Homo sapiens
M565 = assay: as above; settings: concentration: 10 nM; 96 h; Mus musculus
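Wherever cell viability relative to lipid-only control is given: reverse lipid transfection in 384-well plates, in triplicate, of duplexes on a non-toxic 19mer backbone with passenger strand 2′-O-methylated at positions 1 and 2, luminescence viability read-out.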

Sequence | cell viability (3LL) [%] | cell viability (H460) [%] | cell viability (HeyA8) [%] | cell viability (M565) [%]
UUUUAGAACAUGUAAACCAAA | 94.4 ± 5.2 | 66 ± 4.3 | 96.8 ± 6.1 | 99.3 ± 20
UUUUAGCACAUGUAAACCAAA | 34.1 ± 7.8 | 62.9 ± 1.9 | 74.5 ± 4 | 67.2 ± 9.4
UUUUAGGACAUGUAAACCAAA | 88.9 ± 3.3 | 70.8 ± 1.4 | 96.5 ± 6.8 | 89.8 ± 4.6
UUUUAGUACAUGUAAACCAAA | 100 ± 6.5 | 81.1 ± 16 | 74.8 ± 7.4 | 106 ± 14
UUUUAUAACAUGUAAACCAAA | 98.5 ± 3.3 | 80 ± 4.9 | 94.1 ± 7.9 | 96.4 ± 15
UUUUAUCACAUGUAAACCAAA | 89.2 ± 9.5 | 67.4 ± 4.9 | 87.3 ± 6.3 | 67.2 ± 1.9
UUUUAUGACAUGUAAACCAAA | 100 ± 9.7 | 70.3 ± 7.1 | 98.3 ± 3.2 | 96.1 ± 14
UUUUAUUACAUGUAAACCAAA | 91.6 ± 11 | 67.2 ± 5.1 | 82.9 ± 3.2 | 101 ± 12
UUUUCAAACAUGUAAACCAAA | 103 ± 8 | 65.8 ± 8 | 88.4 ± 2.6 | 98.4 ± 6.6
UUUUCACACAUGUAAACCAAA | 98.9 ± 10 | 71.3 ± 14 | 67.1 ± 6.6 | 114 ± 7
UUUUCAGACAUGUAAACCAAA | 97.1 ± 9.5 | 79.3 ± 18 | 86.8 ± 2.2 | 84.2 ± 5.4
UUUUCAUACAUGUAAACCAAA | 103 ± 6 | 82.3 ± 21 | 71.7 ± 7.7 | 96.7 ± 17
UUUUCCAACAUGUAAACCAAA | 92.1 ± 8.2 | 81.4 ± 17 | 83.8 ± 5.1 | 83.1 ± 13
UUUUCCCACAUGUAAACCAAA | 50.9 ± 3.7 | 60.5 ± 5 | 53.3 ± 5.4 | 56.8 ± 12
UUUUCCGACAUGUAAACCAAA | 89.4 ± 1.8 | 90.2 ± 8.6 | 90.6 ± 3.2 | 89.4 ± 9.3
UUUUCCUACAUGUAAACCAAA | 33.8 ± 10 | 53.4 ± 12 | 65.8 ± 2.5 | 84.7 ± 5.2
UUUUCGAACAUGUAAACCAAA | 94.7 ± 4.3 | 75.3 ± 14 | 89.1 ± 1 | 90.9 ± 12
UUUUCGCACAUGUAAACCAAA | 62.3 ± 9.1 | 81.2 ± 12 | 87.7 ± 2.4 | 82.4 ± 14
UUUUCGGACAUGUAAACCAAA | 85.9 ± 6 | 65.5 ± 4.1 | 84.3 ± 7.4 | 69.9 ± 9.7
UUUUCGUACAUGUAAACCAAA | 89 ± 5.2 | 71.4 ± 12 | 82.6 ± 2.8 | 89.2 ± 8.1
UUUUCUAACAUGUAAACCAAA | 89.8 ± 1.1 | 69.1 ± 4.3 | 95.8 ± 7.5 | 92 ± 4.1
UUUUCUCACAUGUAAACCAAA | 88.8 ± 6.8 | 52.7 ± 4.9 | 75.3 ± 6.5 | 99.2 ± 12
UUUUCUGACAUGUAAACCAAA | 92.1 ± 6 | 70.6 ± 5 | 93.9 ± 4.2 | 101 ± 4.8
UUUUCUUACAUGUAAACCAAA | 108 ± 5.6 | 82.9 ± 10 | 91.7 ± 3 | 121 ± 7.9
UUUUGAAACAUGUAAACCAAA | 92.9 ± 2.1 | 64.3 ± 7.2 | 101 ± 3.3 | 91.8 ± 7.6
UUUUGACACAUGUAAACCAAA | 85.9 ± 5.4 | 61.1 ± 7.3 | 50.2 ± 4.7 | 77.2 ± 13
UUUUGAGACAUGUAAACCAAA | 102 ± 5.7 | 100 ± 14 | 99.8 ± 3.3 | 103 ± 20
UUUUGAUACAUGUAAACCAAA | 89.8 ± 2.8 | 63.9 ± 7.5 | 75.6 ± 0.79 | 103 ± 16
